Some of the results follow. Values were computed here from the reads of four pooled replicates and scatter widely.
These sequences were tested against T1, Pho4 (S. cerevisiae) (UniProt P07270) (assay: relative binding free energy (BET-seq); higher = weaker binding). Conditions: reference: library average.
T1 sequence: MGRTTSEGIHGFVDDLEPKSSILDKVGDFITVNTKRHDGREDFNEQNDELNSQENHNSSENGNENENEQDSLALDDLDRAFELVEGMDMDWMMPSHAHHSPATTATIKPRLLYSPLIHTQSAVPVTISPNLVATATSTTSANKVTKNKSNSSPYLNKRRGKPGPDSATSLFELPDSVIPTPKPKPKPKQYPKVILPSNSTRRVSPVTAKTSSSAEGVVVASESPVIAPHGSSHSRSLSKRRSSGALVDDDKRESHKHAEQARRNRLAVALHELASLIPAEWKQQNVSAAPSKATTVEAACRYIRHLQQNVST

Sequence	relative binding free energy
GTATACACGTGGTTAT	0.06 kcal/mol
ATGGGCACGTGATCTT	-0.19 kcal/mol
GGGGCCACGTGATAGG	0.16 kcal/mol
AGGAGCACGTGGACTT	0.18 kcal/mol
GGGTGCACGTGTATCT	-0.04 kcal/mol
CGTTGCACGTGAGTTG	0.09 kcal/mol
GGCGTCACGTGGTGGT	0.07 kcal/mol
GGTGACACGTGGCGTA	-0.18 kcal/mol
TAGTTCACGTGGTGTT	0.21 kcal/mol
TGGGGCACGTGGATAA	-0.17 kcal/mol
ATGACCACGTGGGTTT	-0.22 kcal/mol
TGCTGCACGTGGTGAG	-0.16 kcal/mol
TTAAACACGTGAGTGA	0.38 kcal/mol
AGGTACACGTGATTTG	0.14 kcal/mol
AGGATCACGTGAGGCG	0.18 kcal/mol
GATTTCACGTGAAGGT	0.49 kcal/mol
TTTCACACGTGTTTAT	0.14 kcal/mol
GGTCGCACGTGAAATG	0.34 kcal/mol
GTTTTCACGTGGGGAA	0.08 kcal/mol
CAGGGCACGTGTGAGG	0.03 kcal/mol
AAAAACACGTGTTGGT	0.02 kcal/mol
TGTATCACGTGGTTGA	0.14 kcal/mol
TTAACCACGTGGAGGA	0.16 kcal/mol
TAGCTCACGTGGGCTG	0.14 kcal/mol
ATTTGCACGTGTGTTC	0.05 kcal/mol
AGATGCACGTGAGAGT	0.06 kcal/mol

Sequence	relative binding free energy
TTGTACACGTGGTTCT	0.08 kcal/mol
GTTTGCACGTGGCCGG	-0.04 kcal/mol
AAGTTCACGTGGGGCC	0.21 kcal/mol
ATGGTCACGTGGTTTA	0.07 kcal/mol
CGTATCACGTGGTAGT	0.06 kcal/mol
TAAAGCACGTGGAGTT	0.01 kcal/mol
AGTAGCACGTGGTTTA	-0.21 kcal/mol
TTGTGCACGTGAGTGA	0.18 kcal/mol
GGTTGCACGTGGGGCC	-0.07 kcal/mol
GGGTTCACGTGGCTAC	0.4 kcal/mol
AGTGGCACGTGAGTTA	0.15 kcal/mol
CTGTTCACGTGTATCG	0.17 kcal/mol
TGTGGCACGTGTGGCA	-0.13 kcal/mol
GTTATCACGTGGGGAA	0.06 kcal/mol
GGCACCACGTGGAGGT	0.01 kcal/mol
GGATTCACGTGACAGG	0.42 kcal/mol
TATTCCACGTGTATTT	0.11 kcal/mol
TTTTCCACGTGGTCTG	-0.02 kcal/mol
GAATTCACGTGGTGCT	0.37 kcal/mol
TGGATCACGTGTTTAG	0.22 kcal/mol
AAGAACACGTGTGTGG	-0.01 kcal/mol
TTGATCACGTGTGTCA	0.03 kcal/mol
TTATACACGTGGGGCT	-0.04 kcal/mol
AGTGTCACGTGTAAGC	0.2 kcal/mol
CGGCGCACGTGGAAGG	-0.01 kcal/mol
AGAGTCACGTGACGGG	0.29 kcal/mol

Sequence	relative binding free energy
CGTTTCACGTGTAAGG	0.29 kcal/mol
CAAGTCACGTGTTTTA	0.26 kcal/mol
TCCTACACGTGGGGGG	0.05 kcal/mol
AGGGTCACGTGGGAGT	-0.1 kcal/mol
GTCATCACGTGATTGT	0.31 kcal/mol
ATGGCCACGTGTCGGT	0.01 kcal/mol
ATGCTCACGTGTTGGG	0.25 kcal/mol
TTATACACGTGGGTGT	-0.08 kcal/mol
CGGAACACGTGTGTTT	0 kcal/mol
GTGGCCACGTGGAGTA	-0.11 kcal/mol
TGGTACACGTGTCTGT	0.09 kcal/mol
TAGATCACGTGGTAAG	0.13 kcal/mol
AAATTCACGTGTACTG	0.39 kcal/mol
TTGCGCACGTGGGAAG	-0.23 kcal/mol
CAGGGCACGTGATGCG	0.09 kcal/mol
GAGTGCACGTGCATGT	0 kcal/mol
GAGATCACGTGGGTTA	0.14 kcal/mol
TGGTTCACGTGAGAGC	0.38 kcal/mol
GTGGGCACGTGAACGC	0.22 kcal/mol
CCTTGCACGTGGGAGG	-0.24 kcal/mol
GGACTCACGTGTTATG	0.2 kcal/mol
GCGTACACGTGGTATT	0.14 kcal/mol
TTACTCACGTGAGGTA	0.35 kcal/mol
TGCGCCACGTGTTGGG	-0.11 kcal/mol
GAGGTCACGTGGGACG	0.05 kcal/mol
GATTTCACGTGTTGCT	0.25 kcal/mol

Sequence	relative binding free energy
CTGGTCACGTGTGGTA	0.13 kcal/mol
GTGGCCACGTGTTAGA	-0.06 kcal/mol
ATTGGCACGTGACGTA	-0.02 kcal/mol
TATTGCACGTGAAGGG	0.34 kcal/mol
GTAGCCACGTGTTTGA	0.09 kcal/mol
GGGCGCACGTGTTCTG	-0.1 kcal/mol
GATTGCACGTGGTTAG	0.02 kcal/mol
CTGGGCACGTGGCTGG	-0.29 kcal/mol
AGGATCACGTGACGTG	0.17 kcal/mol
AATGGCACGTGGGTAC	-0.11 kcal/mol
GAGGACACGTGGGGAG	-0.03 kcal/mol
AGTGGCACGTGGATAA	0.05 kcal/mol
CAGTCCACGTGGTTTG	0.03 kcal/mol
GAGGGCACGTGGTCGT	-0.14 kcal/mol
ATGTACACGTGGTTAC	0.14 kcal/mol
CTTTGCACGTGGGCTG	-0.36 kcal/mol
TCTCGCACGTGAGGGT	0.21 kcal/mol
GTTATCACGTGATTTC	0.37 kcal/mol
AAGTTCACGTGTTGAA	0.25 kcal/mol
AAGGACACGTGTCGGT	0.03 kcal/mol
TGGTGCACGTGACGAG	0.22 kcal/mol
AGTAGCACGTGGGAAG	-0.07 kcal/mol
TGTAGCACGTGGCGGA	-0.08 kcal/mol
TGTTTCACGTGTCGTG	0.18 kcal/mol
CTAGTCACGTGAGGGT	0.21 kcal/mol
GTCTGCACGTGGAGTA	-0.05 kcal/mol

Sequence	relative binding free energy
ATCGTCACGTGTCTTG	0.13 kcal/mol
TTGCACACGTGTTGGA	-0.01 kcal/mol
CGTGTCACGTGAGGTT	0.14 kcal/mol
AAGTCCACGTGTGGGT	0.05 kcal/mol
GGTTACACGTGATGCT	0.13 kcal/mol
AGATGCACGTGTTGTC	0.04 kcal/mol
TCGGTCACGTGGTGAT	0.09 kcal/mol
TCTATCACGTGTACGT	0.22 kcal/mol
ATGATCACGTGTTGAG	-0.01 kcal/mol
TTTAACACGTGCAGTT	-0.05 kcal/mol
ATGTGCACGTGAGTTA	0.29 kcal/mol
CTTGTCACGTGTATAA	0.19 kcal/mol
TGCGGCACGTGTTGAG	0.01 kcal/mol
AGGGGCACGTGGATTC	-0.05 kcal/mol
TTGATCACGTGGGGAT	0.03 kcal/mol
TAGTGCACGTGGAGGA	-0.12 kcal/mol
TGTAGCACGTGCTGGG	-0.18 kcal/mol
GTTAGCACGTGGAGTT	-0.17 kcal/mol
CTGAACACGTGGGAGT	0 kcal/mol
AGTTTCACGTGGCTTT	0.31 kcal/mol
TGAATCACGTGACGTT	0.39 kcal/mol
TGGTTCACGTGAGGAA	0.47 kcal/mol
TTTGGCACGTGGATGC	-0.09 kcal/mol
CAGGGCACGTGGCGGG	-0.12 kcal/mol
GGTACCACGTGATTGG	0.03 kcal/mol
AATCGCACGTGTATTG	0.07 kcal/mol

Sequence	relative binding free energy
TTTAGCACGTGAATTT	0.27 kcal/mol
ATGGTCACGTGGTACT	-0.02 kcal/mol
CTTGTCACGTGAGTAG	0.26 kcal/mol
GGGGTCACGTGTGGAG	0.23 kcal/mol
GTTGACACGTGAGTAA	0.17 kcal/mol
TGTGTCACGTGAGCTA	0.12 kcal/mol
TGACGCACGTGGATGG	-0.15 kcal/mol
GTTGTCACGTGGGATG	0.1 kcal/mol
TATTTCACGTGTGTGT	0.37 kcal/mol
TTTTTCACGTGTTGCC	0.38 kcal/mol
TGTTACACGTGGGAAT	0.07 kcal/mol
AAGTGCACGTGGGGCT	-0.14 kcal/mol
CGGATCACGTGAGGAG	0.37 kcal/mol
ATTTCCACGTGTCGTT	0.17 kcal/mol
TGATTCACGTGAGGTG	0.46 kcal/mol
GTAGTCACGTGGGGCG	0.05 kcal/mol
TATGTCACGTGAATTG	0.23 kcal/mol
AGTAGCACGTGGTCAT	-0.12 kcal/mol
CTAATCACGTGATGGG	0.24 kcal/mol
GGCATCACGTGGGGTC	0.04 kcal/mol
ATAGTCACGTGAGGGC	0.34 kcal/mol
GAGGGCACGTGAGAGG	0.3 kcal/mol
ATATACACGTGAATGT	0.21 kcal/mol
GTAGTCACGTGTAGGT	0.11 kcal/mol
CTTAGCACGTGGTTTT	-0.33 kcal/mol
CGTGGCACGTGTTGGA	0.04 kcal/mol

Sequence	relative binding free energy
ATTTGCACGTGTCGTC	0.11 kcal/mol
ATCGGCACGTGTTGCT	-0.06 kcal/mol
CTTGTCACGTGTTATG	-0.1 kcal/mol
AGTTCCACGTGGTATA	0.12 kcal/mol
TTCTGCACGTGTTTGG	0.04 kcal/mol
TGTCACACGTGTAGGT	-0.01 kcal/mol
GTATTCACGTGTAGTC	0.25 kcal/mol
AGGGTCACGTGGTGGC	0.01 kcal/mol
TTAAACACGTGGTTAT	0.09 kcal/mol
CTTTGCACGTGGCAGT	-0.04 kcal/mol
TTTCACACGTGGATGT	0.03 kcal/mol
GGGGACACGTGGGAAT	0.01 kcal/mol
GTTTGCACGTGGTCGC	-0.1 kcal/mol
GTTGTCACGTGGTAAT	0.06 kcal/mol
GAAGACACGTGGGGGA	0.03 kcal/mol
GGTCGCACGTGTGAGT	-0.02 kcal/mol
TACGGCACGTGGGTGT	-0.2 kcal/mol
TCCTGCACGTGATTGT	0.2 kcal/mol
GAAGCCACGTGGTTGG	-0.06 kcal/mol
GTTAACACGTGGGTTT	0.01 kcal/mol
TTTGACACGTGGTTGG	-0.05 kcal/mol
ATCTTCACGTGGCTTT	0.29 kcal/mol
TTCGTCACGTGGGATA	-0.02 kcal/mol
CTCGGCACGTGGCGTG	-0.1 kcal/mol
CATTTCACGTGTATTT	0.38 kcal/mol
GTGCTCACGTGTAGGG	0.11 kcal/mol

Sequence	relative binding free energy
CGTTTCACGTGGTATT	0.11 kcal/mol
TTAAACACGTGATATG	0.12 kcal/mol
CCTGTCACGTGTATTT	0.19 kcal/mol
ATACGCACGTGTTTTA	-0.08 kcal/mol
TCTGCCACGTGGATGG	0.08 kcal/mol
AGAAGCACGTGTTTTG	-0.15 kcal/mol
TGAGTCACGTGAGAAG	0.42 kcal/mol
GGTTTCACGTGAGTAA	0.44 kcal/mol
TTGTCCACGTGTTCTT	0.03 kcal/mol
TATGCCACGTGTATTT	0.05 kcal/mol
AGGCTCACGTGGGGGT	0.04 kcal/mol
ATATGCACGTGTATAT	-0.05 kcal/mol
GTTTTCACGTGTGGGG	0.34 kcal/mol
CCTTGCACGTGTGGGA	-0.03 kcal/mol
ATTGACACGTGTTAGT	-0.21 kcal/mol
ATGGGCACGTGAGACG	0.03 kcal/mol
TGTGTCACGTGTCTAT	0.03 kcal/mol
ATCGACACGTGAGTTG	0.26 kcal/mol
GGCGGCACGTGGGCTG	-0.23 kcal/mol
CAAGGCACGTGCGGGG	-0.18 kcal/mol
GATTGCACGTGCGTTG	-0.04 kcal/mol
TTAATCACGTGAAGGG	0.29 kcal/mol
TGATGCACGTGTCTTA	-0.05 kcal/mol
TGTGACACGTGCTTTT	-0.01 kcal/mol
GGTTGCACGTGTGAAA	0.18 kcal/mol
AGTGTCACGTGGCGGG	-0.01 kcal/mol

Sequence	relative binding free energy
TCGCTCACGTGGGTGA	0.15 kcal/mol
CTAATCACGTGTGGAG	0.3 kcal/mol
AAGTACACGTGAGTTT	0.36 kcal/mol
CGAAACACGTGTAGGG	0.09 kcal/mol
ATACACACGTGGGGTT	-0.09 kcal/mol
GATAGCACGTGGCGGG	-0.15 kcal/mol
TTCGTCACGTGTGATA	-0.04 kcal/mol
GTAGGCACGTGACGGG	-0.02 kcal/mol
AGGAGCACGTGGCGGG	-0.13 kcal/mol
TACGGCACGTGGGTTG	-0.17 kcal/mol
TTTTACACGTGACTTG	0.27 kcal/mol
AGGAGCACGTGAAAGG	0.2 kcal/mol
CTTAACACGTGGATGT	-0.04 kcal/mol
GTTGTCACGTGTTGGG	0.24 kcal/mol
GTCTTCACGTGTGTGT	0.31 kcal/mol
GATTGCACGTGATATG	0.06 kcal/mol
AGTGTCACGTGGCGAG	-0.06 kcal/mol
GGCTTCACGTGCGGGT	0.27 kcal/mol
TAATTCACGTGAATGG	0.46 kcal/mol
GGGGGCACGTGATTTG	0.14 kcal/mol
TTTGTCACGTGCCGGT	-0.05 kcal/mol
TTGGCCACGTGTGGAT	-0.01 kcal/mol
